From patent US20110301335A1 come the findings set out here.

Assay [1] addresses human TNFR1 on MRC-5 cells (human) (UniProt P19438). Description: cell-based or functional assay.
The target in assay [2] is mouse TNFR1 on L929 cells (mouse) (UniProt P25118). Description: cell-based or functional assay.
Chain of UniProt P25118 (P25118 30-454): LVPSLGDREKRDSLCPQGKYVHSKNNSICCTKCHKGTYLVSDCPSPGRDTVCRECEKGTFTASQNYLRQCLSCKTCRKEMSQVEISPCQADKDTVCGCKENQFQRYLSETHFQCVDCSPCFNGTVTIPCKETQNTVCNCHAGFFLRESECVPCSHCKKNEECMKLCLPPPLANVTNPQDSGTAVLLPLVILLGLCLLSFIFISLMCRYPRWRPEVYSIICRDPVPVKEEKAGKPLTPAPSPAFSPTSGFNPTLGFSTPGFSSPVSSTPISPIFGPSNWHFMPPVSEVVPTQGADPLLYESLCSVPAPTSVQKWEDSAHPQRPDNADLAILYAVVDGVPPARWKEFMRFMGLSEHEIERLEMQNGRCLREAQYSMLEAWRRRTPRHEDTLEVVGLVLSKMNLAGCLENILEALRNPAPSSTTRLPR

Chain of UniProt P19438 (P19438 30-455): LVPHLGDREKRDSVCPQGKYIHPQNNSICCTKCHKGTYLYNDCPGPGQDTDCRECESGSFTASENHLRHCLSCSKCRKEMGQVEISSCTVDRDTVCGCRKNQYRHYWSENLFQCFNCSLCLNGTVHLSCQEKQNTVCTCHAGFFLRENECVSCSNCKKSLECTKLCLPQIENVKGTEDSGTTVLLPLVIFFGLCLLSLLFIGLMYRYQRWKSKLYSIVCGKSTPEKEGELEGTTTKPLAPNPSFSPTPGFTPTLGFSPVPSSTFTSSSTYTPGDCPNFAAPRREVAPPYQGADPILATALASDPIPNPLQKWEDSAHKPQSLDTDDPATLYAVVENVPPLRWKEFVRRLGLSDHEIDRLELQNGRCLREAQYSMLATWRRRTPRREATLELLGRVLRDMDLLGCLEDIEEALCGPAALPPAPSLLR

B1: DMS0136 (bispecific antibody)
chain: EVQLLESGGGLVQPGGSLRLSCAASGFTFVKYSMGWVRQAPGKGLEWVSQISDTADRTYYAH[about 20 residues omitted]MNSLRAEDTAVYYCAIYTGRWVPFEYWGQGTLVTVSSASTDIQMTQSPSSLSASVGDRVTITCRASRPIGTTLSWYQQKPGKAPKLLILWNSRLQSGVPSRFSGSGSGTDFTLTISSLQPEDFATYYCAQAGTHPTTFGQGTKVEIKR
In the case of B1, in assay [1], the MRC5 ND50 was 1.97 nM. The molecule further yielded an L929 ND50 in assay [2] of 5.4 nM.
